6 molecules from article PMC4178304 can be followed below.

Sequences of proteins named here, by UniProt entry; tags and fusion partners are left off. A change or cut given only in a name is not applied to a line headed by its entry. A line that says so, or that is headed by a name, gives the form on record, which may keep a tag or linker. Residues count along the entry.
UniProt Q2NKI2: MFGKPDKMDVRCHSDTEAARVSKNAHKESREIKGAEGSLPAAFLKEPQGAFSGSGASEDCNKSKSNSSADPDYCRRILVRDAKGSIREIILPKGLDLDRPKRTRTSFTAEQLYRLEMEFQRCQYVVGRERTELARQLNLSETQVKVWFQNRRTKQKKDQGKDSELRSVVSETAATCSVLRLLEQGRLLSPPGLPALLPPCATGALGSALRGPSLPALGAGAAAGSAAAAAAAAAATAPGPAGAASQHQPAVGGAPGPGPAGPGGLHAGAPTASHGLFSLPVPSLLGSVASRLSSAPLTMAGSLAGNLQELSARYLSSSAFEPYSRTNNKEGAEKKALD
Vax1(WF/SR) mutant (Q2NKI2, form named): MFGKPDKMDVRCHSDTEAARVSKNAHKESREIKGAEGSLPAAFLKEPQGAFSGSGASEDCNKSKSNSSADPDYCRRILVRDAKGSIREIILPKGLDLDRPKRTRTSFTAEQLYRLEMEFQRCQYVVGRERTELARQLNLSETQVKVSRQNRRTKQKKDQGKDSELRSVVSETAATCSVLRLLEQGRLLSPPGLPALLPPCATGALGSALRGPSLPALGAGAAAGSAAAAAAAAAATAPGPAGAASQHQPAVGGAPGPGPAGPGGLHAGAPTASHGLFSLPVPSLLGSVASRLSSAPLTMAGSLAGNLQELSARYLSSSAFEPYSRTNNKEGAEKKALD
UniProt P43407, residues 19-202: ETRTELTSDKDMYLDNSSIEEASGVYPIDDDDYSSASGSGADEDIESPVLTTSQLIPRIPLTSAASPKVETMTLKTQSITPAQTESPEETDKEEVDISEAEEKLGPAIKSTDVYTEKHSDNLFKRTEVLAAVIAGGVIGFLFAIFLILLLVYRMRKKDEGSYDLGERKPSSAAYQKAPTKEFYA
UniProt Q64519, residues 45-442: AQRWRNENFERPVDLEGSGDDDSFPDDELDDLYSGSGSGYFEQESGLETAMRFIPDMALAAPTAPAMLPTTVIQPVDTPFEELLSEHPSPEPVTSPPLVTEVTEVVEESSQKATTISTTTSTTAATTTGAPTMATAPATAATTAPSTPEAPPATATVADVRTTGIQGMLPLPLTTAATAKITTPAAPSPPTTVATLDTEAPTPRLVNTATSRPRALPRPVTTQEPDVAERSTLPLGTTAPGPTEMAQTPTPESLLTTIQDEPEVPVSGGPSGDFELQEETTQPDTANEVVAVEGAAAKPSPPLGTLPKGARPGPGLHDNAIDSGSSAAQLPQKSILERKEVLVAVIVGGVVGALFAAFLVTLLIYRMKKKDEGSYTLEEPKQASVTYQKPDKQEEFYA
UniProt P32114: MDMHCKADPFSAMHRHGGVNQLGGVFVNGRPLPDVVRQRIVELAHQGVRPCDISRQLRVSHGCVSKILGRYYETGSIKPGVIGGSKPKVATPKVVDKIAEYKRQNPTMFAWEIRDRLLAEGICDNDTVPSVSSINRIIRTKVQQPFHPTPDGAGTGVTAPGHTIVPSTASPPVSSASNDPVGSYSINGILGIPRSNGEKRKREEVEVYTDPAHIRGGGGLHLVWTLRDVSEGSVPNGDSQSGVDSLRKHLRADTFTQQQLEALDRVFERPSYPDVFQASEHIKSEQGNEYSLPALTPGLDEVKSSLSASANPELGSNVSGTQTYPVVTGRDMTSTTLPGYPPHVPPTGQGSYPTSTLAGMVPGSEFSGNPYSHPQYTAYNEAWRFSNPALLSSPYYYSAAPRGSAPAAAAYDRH

Assay [1] deals with Ventral anterior homeobox 1 (Vax1), endogenous in E14.5 mouse optic nerve (mouse (endogenous in E14.5 mouse optic nerve)) (UniProt Q2NKI2). The experiment in a line: co-IP; endogenous proteins of E14.5 mouse optic nerve lysate (10 mM Tris-HCl pH 7.4, 200 mM NaCl, 1% Triton X-100, 1% NP-40); IP with rabbit anti-Vax1 (or goat anti-Sdc2), 4°C 16 hr, protein A-agarose, Western blot; no heparin. (Immunoblotting shows a protein as a band on a membrane.)

Assay [2] has the same target. The experiment in a line: co-IP; IP of endogenous Vax1 from E14.5 mouse optic nerve / OS lysate in the presence of free heparin (1 mg/ml).
Assay [3] has as its target Vax1(WF/SR) mutant (mouse) (UniProt Q2NKI2). The experiment in a line: co-IP; lysates of HEK293T cells co-expressing Vax1, Vax1(WF/SR) or Vax2 with GFP-tagged Sdc constructs; IP of the GFP-Sdc complexes and blot with anti-Vax1 / anti-Vax2, or IP with anti-Vax1 and blot with anti-GFP.
For the next assay, the target named is T1, GFP-tagged Sdc1 (UniProt P18828).
T1 sequence: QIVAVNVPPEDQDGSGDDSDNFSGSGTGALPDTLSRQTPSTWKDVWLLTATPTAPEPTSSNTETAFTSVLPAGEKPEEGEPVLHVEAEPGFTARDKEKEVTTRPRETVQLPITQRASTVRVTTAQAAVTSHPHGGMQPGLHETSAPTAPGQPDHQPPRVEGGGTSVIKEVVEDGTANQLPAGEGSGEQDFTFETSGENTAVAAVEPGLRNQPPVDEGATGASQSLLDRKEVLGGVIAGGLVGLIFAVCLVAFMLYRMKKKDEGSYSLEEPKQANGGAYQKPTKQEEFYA
The assay is described as above.

The target in the next assay is GFP-tagged Sdc2 (UniProt P43407). The assay is described as above.
For assay [4], the target named is Ventral anterior homeobox 1 (Vax1), endogenous in E14.5 mouse optic nerve (mouse (endogenous in E14.5 mouse optic nerve)) (UniProt Q2NKI2). The experiment in a line: co-IP; endogenous proteins of E14.5 mouse optic nerve lysate (10 mM Tris-HCl pH 7.4, 200 mM NaCl, 1% Triton X-100, 1% NP-40); IP with rabbit anti-Vax1 (or goat anti-Sdc2), 4°C 16 hr, protein A-agarose, Western blot; no heparin. This is another data set of the same source.

These are yes or no findings as the source states them, for the method shown. In cells and extracts the contact can be indirect. Some binding calls cover weakened binding; strength is not graded here. For some assays here: Sequences can lack the tags named with a protein.

Turning to “Syndecan 3 (Sdc3), endogenous in E14.5 mouse optic nerve (from UniProt Q64519 45-442)”, the binding result in assay [1] is “binds”; in assay [2] it was “no binding (condition: with free heparin (1 mg/ml))”. As for “GFP-tagged Sdc2 (from UniProt P43407 19-202)”, the binding result in assay [3] is reported as “binds”. For “Pax2 (paired homeobox 2), endogenous in E14.5 mouse optic nerve (from UniProt P32114 1-414)”, the binding result in assay [1] and in assay [2] was “binds” each time. Regarding “Vax1 overexpressed in HEK293T cells (from UniProt Q2NKI2 1-338)”, the binding result with GFP-tagged Sdc1 and with GFP-tagged Sdc2 was “binds” in each case. For “Syndecan 2 (Sdc2), endogenous in E14.5 mouse optic nerve (from UniProt P43407 19-202)”, the binding entry in assay [1] is on record as “binds”; in assay [2], “no binding (condition: with free heparin (1 mg/ml))”.

B1: Glypican 1 (Glp1), endogenous in E14.5 mouse optic nerve (protein, UniProt Q9QZF2 24-529)
chain: DPASKSRSCSEVRQIYGAKGFSLSDVPQAEISGEHLRICPQGYTCCTSEMEENLANHSRMELESALHDSSRALQATLATQLHGIDDHFQRLLNDSERTLQEAFPGAFGDLYTQNTRAFRDLYAELRLYYRGANLHLEETLAEFWARLLERLFKQLHPQLLPDDYLDCLGKQAEALRPFGDAPRELRLRATRAFVAARSFVQGLGVASDVVRKVAQVPLAPECSRAIMKLVYCAHCRGVPGARPCPDYCRNVLKGCLANQADLDAEWRNLLDSMVLITDKFWGPSGAESVIGGVHVWLAEAINALQDNKDTLTAKVIQACGNPKVNPHGSGPEEKRRRGKLALQEKPSTGTLEKLVSEAKAQLRDIQDFWISLPGTLCSEKMAMSPASDDRCWNGISKGRYLPEVMGDGLANQINNPEVEVDITKPDMTIRQQIMQLKIMTNRLRGAYGGNDVDFQDASDDGSGSGSGGGCPDDTCGRRVSKKSSSSRTPLTHALPGLSEQEGQKTS
modifications: heparan sulfate (HS) side chains
As to B1, the binding entry is “binds” in assay [4] and “no binding (condition: with free heparin (1 mg/ml))” in assay [2].
